# The other results are listed elsewhere or left out.
# System: T1, Caupolican (Caup) homeodomain DNA-binding domain
# T1 sequence: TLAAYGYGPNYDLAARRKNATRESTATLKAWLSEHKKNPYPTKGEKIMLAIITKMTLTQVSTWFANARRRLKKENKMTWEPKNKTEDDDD
# Assay: PBM E-score (8-mer, recovered from the published 9-mer minima) (E-score (dimensionless, -0.5 to 0.5)); Drosophila protein; higher = stronger relative binding preference, active = 0.31 or more
# In short: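 Caup's homeodomain DNA-binding domain (residues 214-303) was made by in vitro transcription and translation and applied at 100 nM to custom-designed protein binding microarrays. Each value is an enrichment score that gives relative binding preference for a short DNA word, with higher meaning stronger. The 8-mer values were recovered from published 9-mer scores, each of which was the minimum of its two constituent 8-mer scores. A cutoff of 0.31 marks candidate sites.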
row,Sequence,PBM E-score
1,ACACTAGC,inactive: 0.0352
2,AACGGTTA,inactive: -0.00156
3,AACTTATT,≥ 0.188
4,AGACCACT,inactive: -0.00222
5,AATAAGTC,inactive: 0.0266
6,GCCAGCGA,inactive: -0.154
7,CCATCAAC,inactive: 0.0807
8,AATAGTAT,inactive: 0.175
9,CAATGAAG,inactive: 0.123
10,CTATGTTC,inactive: 0.31
11,ATGGGGCC,inactive: -0.257
12,AACAGAGA,inactive: 0.118
13,GTATCCGA,inactive: 0.0604
14,GAAGTCGC,inactive: -0.0988
15,CCACGGAA,inactive: 0.0209
16,ACGCCTTA,inactive: -0.071
17,GAGAAGCC,inactive: -0.174
18,TGCCCGAA,inactive: -0.0392
19,GCTGTGCC,inactive: -0.0361
20,CCAATAAG,inactive: -0.0294
21,GAGCTACC,inactive: -0.103
22,GGTCGCAC,inactive: -0.119
23,CGACAACA,active: 0.342
24,ATTTTCCA,inactive: 0.0797
25,CATTGACC,inactive: 0.083

row,Sequence,PBM E-score
1,GGGTCCTA,inactive: -0.107
2,ACTTCCAT,inactive: 0.00693
3,AATACCGC,inactive: 0.0277
4,CCACTAGG,inactive: -0.169
5,CTTCATAA,inactive: 0.0204
6,CATATAAG,inactive: 0.164
7,ACCGTATC,inactive: -0.0493
8,CTTCGCTA,inactive: -0.023
9,AGACAAAT,inactive: 0.1
10,TCAGAGAA,inactive: 0.00804
11,AGGCTAAG,inactive: -0.173
12,CGATTACC,inactive: -0.0444
13,CACTGACC,inactive: -0.134
14,GTAACAAA,inactive: 0.217
15,CTCTCAAC,inactive: -0.0873
16,GCCTCTTA,inactive: -0.151
17,CTTCGGTA,inactive: -0.0284
18,AGTTCGAA,inactive: 0.124
19,CGTGAACC,inactive: -0.0185
20,CTAATGCC,inactive: -0.106
21,GGTATCGA,inactive: 0.0412
22,ACCTCACG,inactive: -0.0522
23,AGAGGATG,inactive: 0.0205
24,AACACAGG,inactive: 0.162
25,AGCGCACG,inactive: -0.123

row,Sequence,PBM E-score
1,ACAGTAGG,inactive: 0.0409
2,TAGGGAGA,inactive: -0.138
3,AGGCGTGC,inactive: -0.134
4,AGACTATC,inactive: 0.0406
5,ATTCAGTG,inactive: 0.034
6,CACGTCCA,inactive: 0.11
7,AGACCTGA,inactive: -0.0421
8,TCCTTAGA,inactive: 0.00339
9,CAGCCGAC,inactive: -0.0959
10,ATTAGTTA,inactive: 0.19
11,AAGCCATC,inactive: 8e-05
12,ATGCTGAA,inactive: 0.0213
13,GTCATCAC,inactive: 0.0296
14,AATATTAG,inactive: 0.228
15,GCCTCTCC,inactive: -0.189
16,GAACACAA,active: 0.317
17,ATCGCGCA,inactive: -0.0312
18,ACTGCTTG,inactive: 0.00369
19,ACTACAGA,inactive: 0.217
20,ATCCCCTG,inactive: -0.0464
21,TGATATAA,inactive: 0.165
22,AGGTTTAA,inactive: 0.0468
23,CCGGCGAG,inactive: -0.162
24,GAGGGAGC,inactive: -0.196
25,CGTCAGTA,inactive: -0.0321

row,Sequence,PBM E-score
1,AAAACGAG,inactive: 0.00037
2,ACTGGCAG,inactive: -0.104
3,GATCTCGA,inactive: -0.0485
4,AGATACAG,inactive: 0.109
5,ACCTGAGT,inactive: -0.0167
6,CGACCTTC,inactive: -0.128
7,AGGCCTTC,≥ -0.109
8,CGACAGCA,inactive: 0.0715
9,GTCGCATA,inactive: 0.103
10,GACATGCA,active: 0.394
11,ATGGGTCG,inactive: -0.0702
12,GCATGTGA,inactive: 0.176
13,CTTCCAGA,inactive: -0.0108
14,CTCATACA,inactive: 0.105
15,AATTCCAA,inactive: 0.0762
16,TATTAGGA,inactive: 0.173
17,ATCGGCCC,inactive: -0.167
18,AAACAGAA,inactive: 0.0973
19,CCTCACTA,inactive: -0.0238
20,GCATCCGC,inactive: -0.0969
21,ACGCCTGC,inactive: -0.115
22,ACTTTAAG,inactive: 0.0186
23,CCTTTTGC,inactive: -0.144
24,CCCTCGCA,inactive: -0.221
25,GGTCAAAC,inactive: 0.0289

row,Sequence,PBM E-score
1,GCTCAGAA,inactive: -0.121
2,GTCGGAAC,inactive: 0.0465
3,GCAACTGA,inactive: 0.00625
4,GGGATAAA,inactive: 0.0523
5,ACACGCAG,inactive: 0.171
6,GCTCCTAA,inactive: -0.0665
7,AGGATCCC,inactive: -0.104
8,CCCTTGTC,inactive: 0.177
9,ATAGTGCC,inactive: -0.00807
10,GGAGATAA,inactive: -0.048
11,ACCTTACA,inactive: 0.165
12,CCGCACGC,inactive: -0.165
13,AAGAGATT,inactive: -0.0088
14,AAGCAATG,inactive: 0.0957
15,CCTTTAAA,inactive: -0.00481
16,ACGTAAAA,inactive: 0.103
17,GCGACGAA,inactive: -0.0973
18,AGAGCGCT,inactive: -0.145
19,ATCCGACG,inactive: -0.014
20,AACACATC,inactive: 0.202
21,GGTTACTA,inactive: 0.0657
22,ACACCCTA,≥ 0.193
23,AAGCAACC,inactive: 0.0108
24,CCGCAGCC,inactive: -0.25
25,AGTTGAAG,inactive: 0.0488

row,Sequence,PBM E-score
1,CACATAAC,inactive: 0.223
2,CCGTTCGC,inactive: -0.121
3,AACTGACG,inactive: -0.0576
4,GCCTGTCA,inactive: 0.0712
5,CCTCTGGA,inactive: -0.169
6,ACATAAGG,inactive: 0.2
7,ATCGGAAT,inactive: 0.11
8,CGCGCATA,inactive: -0.00482
9,AGGAACCG,inactive: -0.0874
10,CACGCGAC,inactive: -0.00214
11,GGACGGTA,inactive: -0.0402
12,AGGACGAT,≥ 0.0577
13,AATATACA,active: 0.322
14,GGTGGTGA,inactive: -0.0929
15,TAACCTTA,inactive: -0.0537
16,ATATGTCG,inactive: 0.302
17,ACGAACTC,inactive: -0.00652
18,GGCTGGAC,inactive: -0.225
19,CTCCTTAA,inactive: -0.152
20,AGTCACTG,inactive: -0.0797
21,ATTTAAAC,inactive: 0.233
22,CAGGACGG,inactive: -0.0596
23,ATCTCAAT,inactive: 0.0735
24,ACAGTGCT,inactive: 0.00703
25,ACGCTAAT,inactive: -0.0257

row,Sequence,PBM E-score
1,CCATTGCC,inactive: -0.226
2,CCGATGAG,inactive: -0.0517
3,CCGAATCC,inactive: -0.0248
4,GGTGTGTA,inactive: 0.258
5,GCTCAAGA,inactive: -0.183
6,CTGTATTC,inactive: 0.166
7,CTCCGCGA,inactive: -0.142
8,AGTCTCCA,inactive: -0.0921
9,CGCTCGCC,inactive: -0.18
10,ACATCCTC,inactive: 0.199
11,ACCTTGAC,inactive: 0.0207
12,ATCTCACC,inactive: -0.0234
13,TAATGGCA,inactive: 0.012
14,CTCTTGCA,inactive: -0.0814
15,TTGGCAAA,inactive: 0.0506
16,GGGTAGAC,inactive: -0.203
17,CGGCCAAG,inactive: -0.19
18,CTAGTCAA,inactive: 0.0597
19,ACCATGAT,inactive: 0.158
20,GAGGTGCA,inactive: -0.0697
21,AGAGAAAT,inactive: -0.0754
22,AAACGTGG,inactive: -0.051
23,AGATAATA,inactive: 0.0772
24,AAATGAAT,inactive: 0.128
25,CGTTCCTA,inactive: -0.0347

row,Sequence,PBM E-score
1,AAAGCGCC,inactive: -0.214
2,ATACTGCA,inactive: 0.0723
3,CAGATCAG,inactive: 0.112
4,CGCCACTC,inactive: -0.141
5,ACTGGATC,inactive: -0.0498
6,AGCCCTAA,inactive: -0.123
7,ACACACGA,inactive: 0.261
8,CTATCCAC,inactive: 0.0352
9,CGACTATA,inactive: 0.155
10,AGCCCATG,inactive: 0.00842
11,ATGGCATA,inactive: 0.0902
12,AGTCTCGG,inactive: -0.0794
13,CTCTTAAA,inactive: -0.0169
14,CTTATATC,inactive: 0.0842
15,AGATCCCC,inactive: -0.129
16,CCTAATCA,inactive: 0.0867
17,AGGATAGA,inactive: 0.00424
18,CCTTTGGA,inactive: -0.134
19,ATTACTTC,inactive: 0.0987
20,AGAAGAAT,inactive: -0.00222
21,AGTCCCCC,inactive: -0.323
22,AAGGCTCT,inactive: -0.194
23,CACTCACC,inactive: -0.132
24,ATGTCCCC,inactive: 0.159
25,CTGATGTA,inactive: 0.251

row,Sequence,PBM E-score
1,TCAATGCA,inactive: 0.0341
2,AGCGAATA,inactive: 0.0608
3,AAATGTGT,inactive: 0.219
4,AGACGTCT,inactive: -0.0527
5,GTGAATCA,inactive: 0.0399
6,AACTGTAC,inactive: 0.086
7,GTTATACA,active: 0.329
8,CCGGCCCC,inactive: -0.387
9,ACCAGGGT,inactive: -0.0515
10,CAGAATGG,inactive: -0.0461
11,GGGTAAAC,inactive: -0.0735
12,GAACAGTA,inactive: 0.173
13,ACCTTGAG,inactive: -0.00572
14,AGTCTTAG,inactive: -0.0522
15,CAGTTAGG,inactive: 0.00044
16,GGCACTTA,inactive: -0.0626
17,AAATAGGG,inactive: -0.0396
18,TACGCCGA,inactive: -0.102
19,GGTACCGA,inactive: -0.219
20,CACAGCTG,inactive: -0.0851
21,ATTGTACC,inactive: 0.2
22,CTCACGGC,inactive: -0.19
